# ± gives the standard deviation of the averaged measurements. Some of the results follow.
# System: PfAP2-G AP2 domain (GST-tagged)
# Experiment: gcPBM binding intensity (ln(normalized median fluorescence intensity)); higher = stronger DNA binding
# How it was run: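 Alexa488 anti-GST antibody, scanned at 488 nm, detected GST-tagged P. falciparum DNA-binding domains that had been expressed in E. coli and incubated for 1 h on an Agilent 4 × 180k array. The array carried primer-extended double-stranded 36-bp intergenic genomic probes and negative controls. Binding intensity is the highest Masliner-normalised natural-log median intensity across replicate spots of either orientation of each probe.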
row,Sequence,gcPBM binding intensity (ln)
1,AAATAAAAAATGGAAATCTTAACAAGAATCATTAAC [CACACA_negctrl_site1626],9.69 ± 0.18
2,AAAAAATAAATAAATAGTACTTTAAAAGAAAAAAAA [XGTACX_site5051],10.9 ± 0.66
3,ATAAAAAATTTAAGTATTTTTTACAAACCTATAAAT [GTGCAC_negctrl_site51],9.71 ± 0.18
4,TATACACTTGTAATAACACACATTATTTTTTTTTTT [CACACA_site1324],9.48 ± 0.43
5,TATATATATATATCCACACACATACATATATTAATA [CACACA_site69],10.4 ± 0.61
6,TTGGTAATTTTAAAATGTACTTATTATATATATATA [XGTACX_site5642],11.3 ± 0.93
7,TTATATTTATATGTAATACAAAATAACAAAAAATTT [CACACA_negctrl_site1721],9.94 ± 0.18
8,AAATTAAAAGAAAATACACACCTGTGGGTGCTTATA [CACACA_site5143],10 ± 0.15
9,TATTTATTCACTTATTGTACTTATATATATAATAAA [XGTACX_site6147],11.2 ± 0.76
10,ATTTTTTTTTGTTTAATGTTATGTGGTCATTAAATT [CACACA_negctrl_site1177],11.1 ± 0.91
11,TATACACACAGACATGCATGCACATATATATATACA [TGCATGCA_site30],10.1 ± 0.15
12,AATTAACCGAAACACACACACATATATATATATATA [CACACA_site3963],10 ± 0.23
13,ATATATTTTTTTTAGCGTACATGCAAAAAAAAAAAA [XGTACX_site4590],11.3 ± 0.88
14,TCATAAATTAAACACACACACACATCTGGATACCCC [CACACA_site9096],10.6 ± 0.32
15,TTTTGTTGTTGTTGTTGTACATAAATAATAAAATAT [XGTACX_site8681],11.3 ± 0.95
16,AAATGATGGAAAAAATAAATTTTTGTACAAAAATTA [CACACA_negctrl_site814],10.8 ± 0.44
17,TTATAAATATTCTTGGGTACTTAAGATGATATGTAA [XGTACX_site5496],11.1 ± 0.78
18,TTATTTTAATAACCTACACACATTTTGTATATTTTA [CACACA_site4000],9.75 ± 0.16
19,AAAAAAAAAAAAAATTGTACAAAAAAAATAAATAAA [XGTACX_site6816],10.9 ± 0.46

row,Sequence,gcPBM binding intensity (ln)
1,AAAAAAAAAAAAGAAACACACATATTTATATTTATA [CACACA_site6213],9.655 ± 0.049
2,TTTTTTTTATTTTAATGTACATTTTTTATTTGTTAT [XGTACX_site7189],11.1 ± 0.69
3,TAATAAAATATGTACGTGCACATAATTATACTAAAA,11.5 ± 0.93
4,ATATATATATTATTTCGTACATAATTATTTGCCTTA [XGTACX_site350],10.6 ± 0.49
5,CCACGAGAATATATAGTGCATAATAATTTTTTTTTG,9.92 ± 0.099
6,GGTGATAATAAGCATACACACACACCCAAAAAAAAA [CACACA_site8137],10.3 ± 0.29
7,TTTTTTTTGTGGTGTCGTACATATGTTTGTTTTAAG [XGTACX_site1759],11.3 ± 0.8
8,ACATATATATATATATATATATATATATAATATTTA [CACACA_negctrl_site633],10.1 ± 0.44
9,ATTATGCTACAAGGAGAACACACAATTGCCACTTTT [CACACA_site8673],10.2 ± 0.13
10,ATATATATCAGACACACACACATGTTTTAAAACTAT [CACACA_site77],10.3 ± 0.13
11,TAAATTTTTAAATACACACATACACCCATACAGACA [CACACA_site548],10.7 ± 0.53
12,AAAAAAAAAAAGAAAGCACACAATACATATGTATAA [CACACA_site1137],9.815 ± 0.035
13,TTATGTATAAACACACGTACACACACTAAGTATATC [XGTACX_site3254],11.5 ± 1
14,AAGGTATGATTAATCACACACATAAATATATATACA [CACACA_site2658],9.72 ± 0.22
15,ATATTAATTCGTTTTGTACACACATAATGAATAATT [CACACA_site8701],11 ± 0.54
16,ATAAAAATCATGTTGGTGCGAAATTTTATTATCAGA [GTGCAC_site9735],9.99 ± 0.028
17,AATTATTTACCCTATACACACAAAACAGACTAAAAA [CACACA_site6688],10.4 ± 0.31
18,AGCCTCGGGGTCATATATATATATATATATATATAT [CACACA_negctrl_site512],10.3 ± 0.42
19,CCACGTATAATATGTACACACACATATATACAAAAA [CACACA_site8208],11.4 ± 0.98

row,Sequence,gcPBM binding intensity (ln)
1,ATTATATTTTTAAGTACACACATATATATATATATA [CACACA_site5925],11.5 ± 0.91
2,TTTAAAAAGATATATACACACATATAAATAAATATA [CACACA_site6436],9.85 ± 0.071
3,ACACATACACATTAGGTGCATATATTTCAATATTAC [GTGCAC_site9423],10.1 ± 0.14
4,TGTATACTATTAAATTGTACACATAAGAAATATTAT [XGTACX_site5839],11.4 ± 0.86
5,TTTTACAAATATAATGGGTGAGCTATCAAAATAAAT [GTGCAC_negctrl_site91],9.915 ± 0.078
6,TTTTTCTATAAAAAAAAAAAAAAAAAATATATATAT [TGCATGCA_negctrl_site535],9.62 ± 0.49
7,TTGTATATTTTATGTACACACAATAAGTTAATATAA [CACACA_site4655],11.4 ± 0.93
8,AAAATAATGTATATATGTACATATAAATATATATAT [XGTACX_site8081],11.1 ± 0.75
9,ATAAAAGGAAGAAAATGTACATATAATTATATGCAT [XGTACX_site8421],10.9 ± 0.53
10,TATTATTGCATATTTACACACGTACTAATTTAAACA [CACACA_site970],11.2 ± 0.82
11,ATGTTTTTAAAAAATTGTACATAATATTTTTTATAA [XGTACX_site7692],11.3 ± 0.72
12,TATATATATATATATATAATACGAATTTGTAGTACA [TGCATGCA_negctrl_site224],11.5 ± 0.93
13,AAAAAAAAAAAGTTTACACACATTAATTTTACATAT [CACACA_site834],9.76 ± 0.042
14,AAAAAAATACCATTCACACATATTCTTTTATTATTT [CACACA_site5113],9.94 ± 0.19
15,ATTAAAAAGACAAAAAAAAAATTTTTTTTTTTTTTT [CACACA_negctrl_site1027],9.99 ± 0.085
16,AAATCAACGATCTATACATGCATATAATATATACAT [TGCATGCA_site25],9.68 ± 0.014
17,TAATAATACCCTTGCTGTACCAAATAAAGTTGAATA [XGTACX_site6922],10.8 ± 0.64
18,GTAGCAATAAACATATGTACATATATATATTTTTTC [XGTACX_site5814],11.1 ± 0.68
